Experimental data taken from PubChem BioAssay AID504332 (National Center for Advancing Translational Sciences (NCATS), 2011).
The whole screen tested about 350,000 compounds, of which about 31,000 (8.9%) were called active. The inconclusive results got no clear call from the source; some entries with a clear call stand among them for comparison. The call rests on the fitted dose curve; in most records, active means well fitted inhibition curve with a large enough effect; inconclusive means small, poorly fitted or top-dose-only effect; inactive means no such curve, though single readings can be large or run the other way. Potencies beside an inconclusive call are fits to weak or partial responses and may not hold up.

Each molecule was assayed against Histone-lysine N-methyltransferase EHMT2 (Homo sapiens) (UniProt Q96KQ7) (assay: qHTS Assay for Inhibitors of Histone Lysine Methyltransferase G9a). Conditions: G9a H3K9 monomethylation, AlphaScreen, 2 h; activity, negative = inhibition: at 59 µM (top of the series) unless noted.
Summary of the method: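 AlphaScreen read-out: biotin-H3K9 peptide (500 nM) methylation by 20 nM enzyme with 20 uM SAM, 2 h at room temperature after 15 min compound preincubation; anti-monomethyl H3K9 antibody plus donor/acceptor beads, 10 min dark.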
Further: nearly all actives have a fitted effect of over 75% in size.
On the % scale 0 is the no-effect control and ±100 the full control effect; potency means the concentration at half of the fitted maximal effect; tags describe the fitted curve by direction and shape.

Sequence of UniProt Q96KQ7 (Q96KQ7 whole entry, looked up): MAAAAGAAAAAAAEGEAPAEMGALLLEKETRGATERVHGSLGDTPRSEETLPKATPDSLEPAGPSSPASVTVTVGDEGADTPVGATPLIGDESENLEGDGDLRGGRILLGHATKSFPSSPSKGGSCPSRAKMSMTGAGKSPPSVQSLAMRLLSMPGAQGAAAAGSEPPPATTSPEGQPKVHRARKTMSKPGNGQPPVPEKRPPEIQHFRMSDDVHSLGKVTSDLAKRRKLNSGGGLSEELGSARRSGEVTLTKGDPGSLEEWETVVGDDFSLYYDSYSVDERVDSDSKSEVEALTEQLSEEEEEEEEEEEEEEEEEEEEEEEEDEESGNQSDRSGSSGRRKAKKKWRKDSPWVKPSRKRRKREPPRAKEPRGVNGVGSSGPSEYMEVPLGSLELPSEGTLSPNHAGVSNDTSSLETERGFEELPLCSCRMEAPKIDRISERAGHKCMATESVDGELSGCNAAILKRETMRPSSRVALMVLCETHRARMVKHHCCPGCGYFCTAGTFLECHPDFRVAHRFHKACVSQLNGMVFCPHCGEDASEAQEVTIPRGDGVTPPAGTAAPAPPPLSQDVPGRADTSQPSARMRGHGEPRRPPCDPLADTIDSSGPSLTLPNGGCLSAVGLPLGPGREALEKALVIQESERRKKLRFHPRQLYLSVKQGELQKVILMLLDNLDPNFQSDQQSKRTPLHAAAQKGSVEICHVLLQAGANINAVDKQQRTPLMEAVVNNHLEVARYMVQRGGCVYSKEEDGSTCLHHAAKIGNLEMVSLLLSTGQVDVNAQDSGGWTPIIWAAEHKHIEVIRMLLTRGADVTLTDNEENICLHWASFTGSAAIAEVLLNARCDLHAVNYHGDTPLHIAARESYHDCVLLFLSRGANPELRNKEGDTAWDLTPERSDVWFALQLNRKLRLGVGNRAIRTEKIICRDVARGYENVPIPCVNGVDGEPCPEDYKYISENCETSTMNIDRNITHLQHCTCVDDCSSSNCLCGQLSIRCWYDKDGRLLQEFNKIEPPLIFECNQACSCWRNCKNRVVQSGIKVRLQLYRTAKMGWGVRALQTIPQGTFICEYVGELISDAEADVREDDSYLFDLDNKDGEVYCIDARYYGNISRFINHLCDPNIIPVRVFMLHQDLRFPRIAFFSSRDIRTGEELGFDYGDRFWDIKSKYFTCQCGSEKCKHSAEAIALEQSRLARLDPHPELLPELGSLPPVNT

Structure (SMILES)	Potency	activity, negative = inhibition
COc1ccc2[nH]c3nc(SCC(=O)NNC(=O)c4ccc(OC)c(OC)c4)nnc3c2c1	inconclusive: 89.1 µM [inhibitor, single point]	–
CC(=O)N1CCc2cc(S(=O)(=O)Nc3ccccc3N3CCN(C)CC3)ccc21	inconclusive: 89.1 µM [inhibitor, single point]	–
C=CCNC(=S)NN=C1CCCCCCC1	inactive	–
Cc1ccc(S(=O)(=O)N2CCN(C(=O)c3cc(C4CC4)nc4c3cnn4C(C)C)CC2)cc1	inconclusive: 0.316 µM [inhibitor, full curve]	–
Oc1ccc(C2C[C@H]3CC[C@@H]2C3)cc1O (some centres undefined)	active: 1 µM	–
COC(=O)c1ccc(N(C(=O)c2ccco2)C(C(=O)NC2CCCC2)c2ccco2)cc1 (centres undefined)	inconclusive: 39.8 µM [inhibitor, single point]	–
Cc1ccccc1NC(=O)Cc1nc(CCl)cs1	inconclusive: 3.16 µM [inhibitor, partial curve, poor fit]	–
S=C(Nc1ccc(Cc2ccncc2)cc1)Nc1cccc(Cl)c1	inconclusive: 79.4 µM [inhibitor, single point]	–
CCSc1nnc(NC(=O)C2Cc3ccccc3CN2C(=O)c2ccco2)s1 (centres undefined)	inconclusive: 25.1 µM [inhibitor, single point]	–
Nc1c(CC(=O)O)cccc1C(=O)c1ccc(Br)cc1	inactive	–
Cc1ccc(/C=N/n2c(-c3ccc(Cl)cc3)n[nH]c2=S)s1	inconclusive: 5.01 µM [inhibitor, full curve, poor fit]	–
Cc1ccccc1NC(=S)N=Nc1c(O)n(C)c2ccc(S(=O)(=O)N3CCOCC3)cc12	inconclusive: 35.5 µM [inhibitor, partial curve]	–
CCOC(=O)COc1cc(OCC(=O)OCC)c2c3c(c(=O)oc2c1)CCCC3	inactive	–
COc1ccc(CN2CCN(C(=O)c3ccc(-c4ccccc4)cc3)CC2)c(OC)c1OC	inactive	–
COc1ccc(CCNC(=O)c2ccc3c(c2)N(Cc2ccccc2C)C(=O)c2ccccc2S3)cc1OC	inactive	–
Cc1nc(C)c(C(=O)C2=C(O)C(=O)N(CCN(C)C)C2c2ccccc2)s1 (centres undefined)	inconclusive: 0.178 µM [inhibitor, full curve, poor fit]	–
COc1ccc2[nH]c(C(=O)NCc3ccccc3)c(C)c2c1	inconclusive: 0.447 µM [inhibitor, partial curve, poor fit]	–
O=C(CCSc1ccccn1)c1ccccc1	inconclusive: 31.6 µM [inhibitor, partial curve, poor fit]	–
O=C(O)c1cccc(S(=O)(=O)Nc2ccccc2Cc2ccccc2)c1	inconclusive: 89.1 µM [inhibitor, single point]	–
O=C(CSCc1c(Cl)cccc1Cl)Nc1ccc2c(c1)OCO2	inconclusive: 79.4 µM [inhibitor, partial curve, poor fit]	–
CCc1ccc(S(=O)(=O)N/N=C(/C)c2ccncc2)cc1	active: 39.8 µM	–
O=C(CSc1ccsc1[N+](=O)[O-])N1CCN(c2ccccc2)CC1	inconclusive: 1 µM [inhibitor, full curve]	–
O=C(O)COc1ccccc1/C=N/NC(=O)c1cc(-c2ccc(Cl)cc2)nc2ccccc12	–	inconclusive: -93.3% [inhibitor]

Structure (SMILES)	Potency	activity, negative = inhibition
CCN(CC)S(=O)(=O)c1cc(NC(=O)c2ccc3c(c2)NC(=O)C(C)S3)ccc1C (centres undefined)	active: 1 µM	–
O=C(CO)C(O)C(O)C(O)CO (centres undefined)	–	inactive: 3.51% [at 12.7 µM]
O=C1/C(=C\Nc2ccc(OC(F)(F)F)cc2)CCN1c1ncccn1	inconclusive: 56.2 µM [inhibitor, partial curve, poor fit]	–
COc1ccccc1NCc1cc(=O)oc2c(C)c(O)ccc12	inconclusive: 20 µM [inhibitor, partial curve, poor fit]	–
COc1ccc(-n2ncc(C(=O)N3CCOCC3)c2C2CCN(C(=O)OC(C)(C)C)CC2)cc1	inactive	–
Cc1ccc(Oc2c(C(N)=O)cc([N+](=O)[O-])cc2[N+](=O)[O-])cc1	inconclusive: 17.8 µM [inhibitor, single point]	–
CC(=O)Nc1nc2ccccc2n1Cc1ccc(Cl)cc1	–	inactive: 43.9% [at 12.7 µM]
Cc1cc(C(=O)NCc2csc(-c3ccccc3)n2)no1	inconclusive: 11.2 µM [inhibitor, partial curve, poor fit]	–
CC(C)(C)OC(=O)CNC(=O)c1nc[nH]c1C(=O)N1CCc2ccccc2C1	inconclusive: 89.1 µM [inhibitor, single point]	–
COc1ccc(NC(=O)CSc2nc(-c3ccco3)cc(C(F)(F)F)n2)cc1Cl	inactive	–
Cc1ccc(Cl)cc1N1CCN(C(=O)c2cc3c(-c4ccccc4F)nn(C)c3s2)CC1	inactive	–
CCc1ccc2oc(-c3cc(NC(=O)c4cc([N+](=O)[O-])ccc4N4CCOCC4)ccc3Cl)nc2c1	inconclusive: 3.55 µM [inhibitor, full curve]	–
Cc1ccc(C(=O)NCc2ccccc2)c(F)c1F	inconclusive: 39.8 µM [inhibitor, partial curve, poor fit]	–
CC(C)(C)c1ccc(OC(=O)c2ccc(-n3cncn3)nc2)cc1	inconclusive: 89.1 µM [inhibitor, partial curve, poor fit]	–
N#Cc1ccccc1NC(=O)CSc1nnc(N)s1	inconclusive: 22.4 µM [inhibitor, partial curve, poor fit]	–
O=C(NC1CCCC1)C(c1ccncc1)N(Cc1ccco1)C(=O)c1ccc(-c2ccccc2)[nH]1 (centres undefined)	inconclusive: 39.8 µM [inhibitor, single point]	–
CCN(CC)S(=O)(=O)c1cc(NC(=O)C(CC(C)C)NC(N)=O)ccc1C (centres undefined)	inactive	–
COc1ccc(C(c2nnnn2Cc2ccccc2)N2CCN(c3nc4ccccc4s3)CC2)cc1 (centres undefined)	inconclusive: 50.1 µM [inhibitor, partial curve, poor fit]	–
COc1ccc(CNC(=O)c2cnc(N3CCOCC3)c3ccccc23)cc1	inactive	–
CCCC(=O)Nc1ccc(N2CCOCC2)cc1	–	inactive: -31.5% [at 12.7 µM]
Cc1c(C2Nc3ccccc3C(=O)N2O)cnn1C (centres undefined)	active: 10 µM	–
O=C(CSc1ncccc1-c1nc2ccccc2[nH]1)NCc1ccco1	active: 10 µM	–
CCOc1cc(CNn2cn[nH]c2=S)cc(Cl)c1OCc1ccccc1F	active: 7.94 µM	–

Structure (SMILES)	Potency	activity, negative = inhibition
CCN(C(=O)c1cn(CC)c(=O)c2cc(OC)c(OC)cc12)c1ccc(C)c(C)c1	inactive	–
CCOc1cccc(-c2nnc3sc(-c4cc(OC)c(OC)c(OC)c4)nn23)c1	active: 79.4 µM	–
CC1CCc2c(sc3nnn(CC(=O)Nc4ccc(Cl)cc4)c(=O)c23)C1 (centres undefined)	inactive	–
Cc1ccc(C)c(NC(=O)CN(C)C(C)C(=O)N2CC(C)CC(C)C2)c1 (centres undefined)	active: 56.2 µM	–
COc1ccc(NC(=O)CN2CCN(CC(=O)Nc3cc(OC)cc(OC)c3)CC2)cc1	inconclusive: 3.16 µM [inhibitor, partial curve]	–
CN1C(=O)CSc2ccc(NC(=O)N3CCC(N4CCCCC4)CC3)cc21	inconclusive: 89.1 µM [inhibitor, single point]	–
Cc1ccc2cccc(Oc3ncnc4scc(-c5ccc(Cl)cc5)c34)c2n1	inactive	–
COc1ccc(-c2nc3c(c(SCC(=O)N4CCCCC4)n2)Cc2c(CO)cnc(C)c2O3)cc1	inconclusive: 14.1 µM [inhibitor, partial curve, poor fit]	–
CC(=O)N1CCC2(CC1)C/C(=N\NC(=S)Nc1ccccc1F)c1cc(O)ccc1O2	active: 15.8 µM	–
O=C1C(=O)c2ccc(-c3ccccc3)cc2-c2ccccc21	inconclusive: 28.2 µM [inhibitor, single point]	–
CC1Cc2ccccc2N1CC(=O)Nc1ccc2c(c1)OCCCO2 (centres undefined)	inconclusive: 39.8 µM [inhibitor, single point]	–
N#CCC(=O)N/N=C/c1cn(Cc2ccccc2C#N)c2ccccc12	inconclusive: 79.4 µM [inhibitor, single point]	–
COc1ccccc1NC(=O)c1ccccc1NC(=O)c1ccccn1	inconclusive: 50.1 µM [inhibitor, partial curve, poor fit]	–
COc1ccccc1N1CCN(C(=O)c2c(C)noc2C)CC1	inconclusive: 79.4 µM [inhibitor, partial curve, poor fit]	–
CC(C(=O)OCC(=O)Nc1ccc(S(=O)(=O)N2CCCCC2)cc1)N1C(=O)c2ccccc2C1=O (centres undefined)	inconclusive: 35.5 µM [inhibitor, single point]	–
COc1ccc(OC)c(CNC(=O)CN2CC(C)Sc3ccccc32)c1 (centres undefined)	inconclusive: 35.5 µM [inhibitor, partial curve, poor fit]	–
C=CC[n+]1ccc(/C=C2\C=Cc3cc(C)ccc3N2CC)c2ccccc21	active: 14.1 µM	–
COc1ccc(CNC2CCSc3ccccc32)cc1OC (centres undefined)	active: 10 µM	–
O=C(O)c1cc(NN=Nc2ccc(Br)cc2)cc([N+](=O)[O-])c1	active: 31.6 µM	–
COc1ccc(CN2CCNC(=O)C2CC(=O)NC2CC(C)(C)CC(C)(C)C2)cc1OC (centres undefined)	inconclusive: 79.4 µM [inhibitor, single point]	–
CC(=O)C1=C(O)C(=O)N(C2CCCCC2)C1c1ccccc1 (centres undefined)	inconclusive: 22.4 µM [inhibitor, single point]	–
C=CCSc1nnc2c(n1)OC=Nc1ccc(Br)cc1-2	inconclusive: 35.5 µM [inhibitor, single point]	–
O=C(CNS(=O)(=O)c1cccc2nsnc12)NCc1ccc(Cl)cc1	–	inconclusive: -55.1% [inhibitor]
